Data as given in the RNAGym collection of RNA variant scans (doi:10.7554/elife.90254).
Read counts are not given, so values of variants with three or more changes are uncertain.

B1: LINE1-mini (parent)
chain: GGCAGAGCUCAACACAGCGUGGCAAAGUGGCUGUGGCUAGACUGCC

Variants of: B1
Assay: self-cleavage, relative activity (ratio to wild type); higher = more cleavage; in vitro, sequencing; the parent is a self-cleaving ribozyme

Variant | self-cleavage
C18U G30U U38C A41G | 0.11
C18U G33A A39G | 0.02
C18U G33C G44A C45U | 0
C18U G33C U38G | 0.02
C18U G33U A39U U43C | 0.03
C18U G33U G35U G40U C42A | 0.21
C18U G35A C46U | 0.02
C18U G35C C42U | 0.01
C18U G35C U43A | 0.04
C18U G35U C37A G44A | 0.03
C18U G35U G36U U38A | 0.07
C18U G36A A39C | 0.03
C18U G36C C37U | 0.01
C18U G40U C42U | 0.01
C18U G44U C45G | 0.06
C18U U20A A24U A26U | 1.07
C18U U20A U34A G40A | 0.03
C18U U20C A26U C46U | 1.59
C18U U20C G29A | 0.22
C18U U20G C37A | 0.02
C18U U20G C45U C46A | 0.09
C18U U20G G21U | 1.46
C18U U28G G30A G33U G40A | 0.04
C18U U28G G35A | 0.03

Variant | self-cleavage
C18U U32A G35A | 0.08
C18U U32C A41C | 0.02
C18U U34C C46G | 0.03
C18U U43A C46G | 0.03
G19A A24C G29U | 0.62
G19A A24C G33A | 0.04
G19A A24G C37A C45G | 0.05
G19A A25C G29C G36U | 0.03
G19A A25C U28G | 0.89
G19A A25G U38C | 0.17
G19A A25U G33U G35U C45U | 0.08
G19A A26C U28C | 0.17
G19A A26U C45A | 0.49
G19A A39C C46G | 0.15
G19A A41U C45U C46U | 0.39
G19A C23U C31U | 0.59
G19A C31A A39G | 0.03
G19A C31G G44U | 0.02
G19A C37A U43A G44U | 0.26
G19A C45U C46U | 1.83
G19A G21A C31G G36A | 0.05
G19A G21A G29C G40U | 0.14
G19A G21U C31A U34G | 0.02
G19A G21U U28G G40C | 0.07

Variant | self-cleavage
G19A G21U U43A | 0.01
G19A G22A A26U | 0.45
G19A G22C A25C U38G | 0.01
G19A G22C G30U | 0.56
G19A G22U A24C G27C U28A C31U U32C G36A A41U | 0.06
G19A G22U A26G C31G | 0.09
G19A G22U G29A C31A C37U | 0.03
G19A G27A G29A A39U | 0.58
G19A G27A G30C | 2.23
G19A G27A G33U | 0.44
G19A G27A U32A | 0.11
G19A G29A A41G G44C | 0.04
G19A G29U G30A | 0.31
G19A G29U G33A U34A | 0.13
G19A G30A C46A | 2.38
G19A G30C G40A C42U C46U | 0.02
G19A G30U C46G | 0.99
G19A G33A G44C | 0.02
G19A G33C G36U | 0.03
G19A G35A A39U | 0.18
G19A G35C C42G | 0.04
G19A U20A A41U C46U | 0.14
G19A U20A G36C | 0.03
G19A U20C A24U U32A C46U | 0.73

Variant | self-cleavage
G19A U20G A24U G36U | 0.01
G19A U20G G44C | 0.14
G19A U28G G29U | 0.63
G19A U32C G33C | 0.04
G19A U34G U43A | 0.02
G19A U43A C45G | 0.04
G19C A24C G27A U32A G33U G35C C42A | 0.01
G19C A24C G27C | 0.13
G19C A24U G30A G44C | 0.08
G19C A25C G27U | 0.72
G19C A25C G30U G40U | 0.17
G19C A25G G29C | 0.36
G19C A25G G33U C42U U43G | 0.01
G19C A26G U38G | 0.01
G19C A39G A41G C46U | 0
G19C A39G U43G G44A | 0.01
G19C C23A C31U G35U | 0.05
G19C C23A G36U | 0.02
G19C C23G C45U C46A | 0.21
G19C C23G G44A | 0.24
G19C C23U C37A | 0.02
G19C C31G C46U | 0.26
G19C C31G G35C U38C | 0.05
G19C C31U G35U C37U | 0.02

Variant | self-cleavage
G19C C37U A39G | 0.01
G19C C37U A41C | 0.01
G19C G21A G22C | 0.13
G19C G21C A26U A39C | 0.03
G19C G21C C37G | 0.04
G19C G21U G30C C31G | 0.08
G19C G21U G36U G44A C45A | 0.02
G19C G22A G30U G36A | 0.01
G19C G22C C46U | 0.34
G19C G22C G35A G44A | 0.07
G19C G22C G35C | 0.02
G19C G22U C31A A39G C45A | 0.2
G19C G22U G40C | 0.06
G19C G27A U28G G33U C37A | 0.02
G19C G27U G29U G40U | 0.13
G19C G29A U32A | 0.17
G19C G30A A39G U43G | 0
G19C G33C C37G | 0.05
G19C G35U C42G U43G | 0
G19C G35U C45U | 0.04
G19C G40A A41U | 0.14
G19C U20A A26G | 0.2
G19C U20A G30U G33U G44U | 0.08
G19C U20A G35A G40C | 0.03

Variant | self-cleavage
G19C U20C G40A | 0.06
G19C U20G C37U | 0.04
G19C U32C A39G | 0.01
G19C U32C C42G | 0.06
G19C U34A C45A | 0.03
G19C U34A G36U | 0.02
G19C U34A U38C C45G C46A | 0.02
G19U A24G C37G U38C | 0.01
G19U A24U C45A | 0.28
G19U A24U G29A C31G G35A | 0.08
G19U A25C A41U | 0.15
G19U A25C G27C C37G | 0.03
G19U A25C G30A | 0.29
G19U A25C G36U | 0.05
G19U A25G G30A C46A | 0.86
G19U A26G U34C C45A | 0.04
G19U A26U U32G | 0.06
G19U C23A C37U U38G | 0.02
G19U C23A G29C C31A | 0.1
G19U C23A G33A | 0.32
G19U C23G C37A | 0.02
G19U C23G C45U | 1.38
G19U C37A A39U | 0.02
G19U C37U U43C | 0.05

Variant | self-cleavage
G19U C42U C46A | 0.05
G19U G21A C23A G40A | 0.03
G19U G21C C23A | 2.49
G19U G21U A26C C46G | 0.19
G19U G21U C45G | 0.03
G19U G21U G30C G40C | 0.03
G19U G21U G33C U34C | 0
G19U G21U G40U | 0.12
G19U G22A A25U A26U | 0.18
G19U G22C A24C | 0.3
G19U G22U C46A | 0.93
G19U G27U A41U | 0.27
G19U G27U G30A C46U | 0.97
G19U G27U U43G | 0
G19U G29A G33A C42U | 0.06
G19U G29C C46U | 0.98
G19U G29C G33U C37U A39G | 0.04
G19U G29U G33U G40C | 0.02
G19U G30A A39U C42U G44A | 0.05
G19U G30A C42A | 0.02
G19U G30A U43A | 0.02
G19U G35C G36C | 0.06
G19U G36C C37U G40U | 0.1
